The values that follow come from the BET-seq Pho4 binding data (Le et al. 2018).

The list shows a part of the results. Values were computed here from the reads of four pooled replicates and scatter widely.

In the assay the target is T1, Pho4 (S. cerevisiae) (UniProt P07270).
T1 sequence: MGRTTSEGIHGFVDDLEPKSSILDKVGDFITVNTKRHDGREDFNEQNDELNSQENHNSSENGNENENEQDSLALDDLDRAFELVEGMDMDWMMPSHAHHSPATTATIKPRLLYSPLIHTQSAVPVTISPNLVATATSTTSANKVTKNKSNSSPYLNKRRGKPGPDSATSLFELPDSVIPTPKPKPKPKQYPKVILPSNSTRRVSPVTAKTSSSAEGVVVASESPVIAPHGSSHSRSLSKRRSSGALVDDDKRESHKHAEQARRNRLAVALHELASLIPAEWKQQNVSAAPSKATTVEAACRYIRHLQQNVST
As to the kind of experiment: relative binding free energy (BET-seq); higher = weaker binding. The settings on record: reference: library average.
Turning to GGCTTCACGTGGGTAC, the “relative binding free energy” value was found to be 0.34 kcal/mol.

With CTAGTCACGTGGTGGT, the “relative binding free energy” value came out at 0 kcal/mol.

Turning to TTAGGCACGTGTAATT, the “relative binding free energy” value worked out at 0.02 kcal/mol.

For TAGGTCACGTGGTGAG, the “relative binding free energy” value was 0.11 kcal/mol.

TTTTTCACGTGTCTTA: the “relative binding free energy” value turned out to be 0.32 kcal/mol.

Take TCATGCACGTGTAAGT: the “relative binding free energy” value is -0.04 kcal/mol.

Turning to CGGGGCACGTGGGAAG, the “relative binding free energy” value was -0.22 kcal/mol.

For CTAGACACGTGGGTGG, the “relative binding free energy” value was -0.23 kcal/mol.

Turning to TGGTACACGTGTTGTG, the “relative binding free energy” value turned out to be 0.09 kcal/mol.

For GGGTTCACGTGGAATA, the “relative binding free energy” value is 0.33 kcal/mol.

Consider GGCTTCACGTGTATGT, for which the “relative binding free energy” value worked out at 0.29 kcal/mol.

For TTTTGCACGTGTAGTT, the “relative binding free energy” value is 0.14 kcal/mol.

Turning to CTATGCACGTGTCGGT, the “relative binding free energy” value was -0.04 kcal/mol.

As to GGGCGCACGTGAGAGG, the “relative binding free energy” value worked out at 0.09 kcal/mol.

On to GGTTGCACGTGTGGTG, for which the “relative binding free energy” value was determined as 0.06 kcal/mol.

As to GCAGACACGTGTTGTT, the “relative binding free energy” value turned out to be 0.04 kcal/mol.

Turning to GTTATCACGTGTATGA, the “relative binding free energy” value came to 0.12 kcal/mol.

TTCTTCACGTGGAGGA: the “relative binding free energy” value amounted to 0.29 kcal/mol.

Turning to TGGATCACGTGAGGGT, the “relative binding free energy” value was 0.28 kcal/mol.

For CGGTCCACGTGGGGGC, the “relative binding free energy” value was -0.15 kcal/mol.

As to TGTGTCACGTGAAGAC, the “relative binding free energy” value was 0.24 kcal/mol.

With GATATCACGTGGTTTA, the “relative binding free energy” value amounted to 0.18 kcal/mol.

On to ACTGTCACGTGTTGTA, for which the “relative binding free energy” value amounted to 0.06 kcal/mol.

For the sequence TAATTCACGTGAGGTA, the “relative binding free energy” value is 0.35 kcal/mol.

As to GGTTCCACGTGAGTTA, the “relative binding free energy” value is 0.36 kcal/mol.

TGACGCACGTGAGTTT: the “relative binding free energy” value came out at 0.14 kcal/mol.

In the case of GCCAGCACGTGGGTGG, the “relative binding free energy” value was -0.13 kcal/mol.

In the case of AGCTACACGTGGGTTT, the “relative binding free energy” value was -0.02 kcal/mol.

GTGTGCACGTGGGTGA: the “relative binding free energy” value was -0.06 kcal/mol.

As to TCTTACACGTGTAGGT, the “relative binding free energy” value was found to be 0.03 kcal/mol.

As to ATTGTCACGTGATTTG, the “relative binding free energy” value stood at 0.17 kcal/mol.

Take TTATTCACGTGGGTTT: the “relative binding free energy” value came to 0.2 kcal/mol.

ATTGACACGTGGAGTA: the “relative binding free energy” value was -0.19 kcal/mol.

As for ATGTGCACGTGACAGG, the “relative binding free energy” value was -0.02 kcal/mol.

As for TGGCACACGTGTTGCG, the “relative binding free energy” value is 0.01 kcal/mol.

With GTGTTCACGTGGAGAT, the “relative binding free energy” value came out at 0.26 kcal/mol.

With AATTTCACGTGTAGTG, the “relative binding free energy” value was determined as 0.24 kcal/mol.

For the sequence TGGGGCACGTGTGCAG, the “relative binding free energy” value is -0.11 kcal/mol.

As for AGGGTCACGTGTGTAG, the “relative binding free energy” value was 0.11 kcal/mol.

As to TTGATCACGTGCAGTT, the “relative binding free energy” value was 0.2 kcal/mol.

On to ATATACACGTGTGAGT, for which the “relative binding free energy” value was -0.03 kcal/mol.

As for GTGTGCACGTGCGGTA, the “relative binding free energy” value was -0.16 kcal/mol.

Take GGTGCCACGTGCTGGG: the “relative binding free energy” value is -0.09 kcal/mol.

Regarding AACTTCACGTGTGGGT, the “relative binding free energy” value is 0.29 kcal/mol.

On to TTTCGCACGTGGTTGC, for which the “relative binding free energy” value is -0.16 kcal/mol.

Regarding TCTTTCACGTGTTGTC, the “relative binding free energy” value was determined as 0.2 kcal/mol.

TCTTTCACGTGTATGA: the “relative binding free energy” value was determined as 0.21 kcal/mol.

For the sequence ATTATCACGTGAGTAT, the “relative binding free energy” value worked out at 0.34 kcal/mol.

Turning to TTGTACACGTGTAGGT, the “relative binding free energy” value is 0.22 kcal/mol.

With TGCGCCACGTGAAGTT, the “relative binding free energy” value was 0.26 kcal/mol.

Take GCGTACACGTGGTTTA: the “relative binding free energy” value came to 0.14 kcal/mol.

As to TTGATCACGTGATCGG, the “relative binding free energy” value was 0.17 kcal/mol.

For CAGGTCACGTGTTAAA, the “relative binding free energy” value was 0.23 kcal/mol.

In the case of GGTTGCACGTGGGAGA, the “relative binding free energy” value was 0.05 kcal/mol.

For AATTTCACGTGACGGT, the “relative binding free energy” value turned out to be 0.31 kcal/mol.

As for TAGGGCACGTGTTTTC, the “relative binding free energy” value was -0.02 kcal/mol.

As for TGGTCCACGTGTGGGT, the “relative binding free energy” value was determined as 0.01 kcal/mol.

In the case of CGGATCACGTGTGAGT, the “relative binding free energy” value came out at 0.32 kcal/mol.

On to TTTAGCACGTGTAGTC, for which the “relative binding free energy” value was determined as 0.03 kcal/mol.

Take TCGGACACGTGTTTAG: the “relative binding free energy” value is 0.01 kcal/mol.

On to GTTGGCACGTGGTAGT, for which the “relative binding free energy” value was 0.01 kcal/mol.

Take TCAGTCACGTGTGGAT: the “relative binding free energy” value was 0.17 kcal/mol.

Regarding GTTTGCACGTGAGGCT, the “relative binding free energy” value amounted to 0.29 kcal/mol.

GGTGTCACGTGCGGCC: the “relative binding free energy” value is 0.06 kcal/mol.

Regarding ATAAACACGTGGATGT, the “relative binding free energy” value was -0.11 kcal/mol.

As for CTGTTCACGTGGTTTC, the “relative binding free energy” value was 0.26 kcal/mol.

Consider CTTGTCACGTGGCATT, for which the “relative binding free energy” value stood at 0.04 kcal/mol.

For the sequence AAAGGCACGTGTAAAT, the “relative binding free energy” value was determined as 0.15 kcal/mol.

TTTGTCACGTGAATTT: the “relative binding free energy” value amounted to 0.33 kcal/mol.

Take CAGGTCACGTGTAGGA: the “relative binding free energy” value is 0.13 kcal/mol.

Turning to GGCCGCACGTGGGGTA, the “relative binding free energy” value is -0.27 kcal/mol.

On to TGGGCCACGTGGTAGA, for which the “relative binding free energy” value was -0.21 kcal/mol.

With TTGGTCACGTGGCGAA, the “relative binding free energy” value is 0.07 kcal/mol.
